Among all 310,000 compounds or so, about 2,200 (0.71%) showed an effect of 50% or more. The effect is printed as a negative number. This is one part of the list.
molecular target: human ether-à-go-go-related gene (hERG) potassium channel (human, UniProt Q12809); test: primary screen, population patch clamp on CHO cells stably expressing hERG
Sequence (Q12809 whole entry, looked up): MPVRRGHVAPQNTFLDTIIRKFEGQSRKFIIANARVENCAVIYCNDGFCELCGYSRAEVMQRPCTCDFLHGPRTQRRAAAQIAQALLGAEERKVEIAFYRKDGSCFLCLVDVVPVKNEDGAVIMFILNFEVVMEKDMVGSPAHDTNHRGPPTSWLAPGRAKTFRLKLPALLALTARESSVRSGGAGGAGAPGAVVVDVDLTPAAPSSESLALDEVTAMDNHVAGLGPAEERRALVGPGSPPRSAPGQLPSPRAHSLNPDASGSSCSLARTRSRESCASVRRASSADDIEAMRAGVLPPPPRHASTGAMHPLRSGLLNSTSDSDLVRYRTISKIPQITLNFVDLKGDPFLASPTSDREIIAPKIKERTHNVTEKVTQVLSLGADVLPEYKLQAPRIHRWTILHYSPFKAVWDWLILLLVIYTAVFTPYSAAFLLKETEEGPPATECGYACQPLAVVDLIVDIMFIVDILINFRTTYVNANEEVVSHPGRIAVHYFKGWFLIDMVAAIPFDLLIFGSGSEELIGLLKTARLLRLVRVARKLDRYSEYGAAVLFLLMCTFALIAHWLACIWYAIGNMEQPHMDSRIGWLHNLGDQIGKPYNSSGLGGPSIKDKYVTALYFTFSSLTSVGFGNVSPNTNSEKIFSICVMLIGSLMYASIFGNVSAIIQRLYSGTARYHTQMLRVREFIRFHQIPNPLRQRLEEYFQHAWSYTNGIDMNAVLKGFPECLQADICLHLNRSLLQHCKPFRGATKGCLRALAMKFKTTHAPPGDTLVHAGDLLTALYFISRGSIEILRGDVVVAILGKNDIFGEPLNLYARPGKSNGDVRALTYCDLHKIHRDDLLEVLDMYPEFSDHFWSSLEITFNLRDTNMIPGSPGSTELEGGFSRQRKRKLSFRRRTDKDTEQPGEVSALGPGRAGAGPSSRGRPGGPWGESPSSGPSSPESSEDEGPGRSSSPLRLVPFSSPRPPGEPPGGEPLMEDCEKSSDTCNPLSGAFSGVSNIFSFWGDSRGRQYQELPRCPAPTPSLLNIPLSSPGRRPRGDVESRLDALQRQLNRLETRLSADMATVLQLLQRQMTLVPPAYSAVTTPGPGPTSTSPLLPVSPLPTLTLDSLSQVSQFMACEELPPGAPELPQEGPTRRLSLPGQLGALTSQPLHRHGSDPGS

| SMILES | hERG current change (%, negative = inhibition) at 1uM [%] |
| --- | --- |
| O=c1cc(NCc2ccco2)[nH]c(=O)n1-c1ccc(Br)cc1 | 9.42 |
| COCc1cc(=O)n2[nH]c(SCc3ccccc3)nc2n1 | -1.58 |
| Cc1cccc(C(=O)NCCc2nnc(SCC(=O)Nc3cccc(C(=O)O)c3)n2C)c1 | 8.54 |
| C/C(=N\NC(=S)Nc1cccc(C)c1)c1ccccc1 | 2.68 |
| Cc1ccc(C)c(NS(=O)(=O)c2cc(C(=O)NCc3ccco3)ccc2C)c1 | 4 |
| O=C(CSc1nnc(NC2CCCCC2)s1)Nc1ccc2c(c1)C(=O)c1ccccc1C2=O | 7.75 |
| O=C(NC1CCCC1)C(c1ccccc1)N(Cc1ccco1)C(=O)Cc1cccs1 (centres unmarked) | 1.47 |
| Cc1ccc(Cn2c(C3CCCN3c3nc(-c4cc(Cl)c(N)c(Cl)c4)cs3)nc3cc(C(=O)NCCCO)ccc32)cc1 (centres unmarked) | 10.2 |
| C=C(C)C1CC=C(C)/C(=N/NC(=O)c2ccc(NC(=O)CCC)cc2)C1 (centres unmarked) | -10.4 |
| O=C(CN1CCc2ccccc2C1)Nc1ccc(Br)cc1 | -0.231 |
| Cc1ccc2c(c1)N(C(=O)NC1CCCCC1)C(C)(C)CC2C (centres unmarked) | 3.91 |
| CCC(C)n1c(SCc2ccccc2)nc2ccsc2c1=O (centres unmarked) | -2.95 |
| C/C(Cc1ccccc1)=N\NC(=O)CNC(=O)c1ccccc1Br | 12.5 |
| CC(C)COC(=O)c1cccc2c1-c1ccccc1/C2=N\O | 13.1 |
| CCOc1ccc(CC(=O)Nc2c(C(N)=O)oc3ccc(Br)cc23)cc1OCC | -12.4 |
| Cc1ccc(S(=O)(=O)Nc2ccccc2-c2ccccc2NS(=O)(=O)c2ccc(C)cc2)cc1 | 12.4 |
| CCc1ccccc1Nc1nc2ccccc2[nH]1 | 8.79 |
| COc1ccccc1NS(=O)(=O)c1ccc(O)c(C(=O)OCC(=O)Nc2ccccc2F)c1 | -0.604 |
| COC(=O)Cc1ccc(OC(=O)C2CCN(S(=O)(=O)c3ccc(OC)c(OC)c3)CC2)cc1 | 15.5 |
| O=C(c1ccccc1N1CCOCC1)N1CCCC(Nc2ccc(F)cc2)C1 (centres unmarked) | 13 |
| C=CCN1C(=O)C2(C(C#N)=C(N)Oc3n[nH]c(CCC)c32)c2ccccc21 (centres unmarked) | 12.9 |
| O=P(c1ccccc1)(c1ccccc1)c1nc(-c2ccc(Cl)cc2)oc1N1CCOCC1 | -12.1 |
| Cc1ccc(-n2c3c(cc(C(=O)N4CCN(C)CC4)c2=O)C(=O)CC(C)(C)C3)cc1 | 1 |
